# Measured values taken from the supplement of paper PMC3334620.
# Whole data set: some 33,000 sequences, median “E-score (-0.5 to 0.5)” near -0.053, cut for the highest 2% near 0.37. The list shows a part of the results.
# Target: Hap1 (UniProt P0CE41)
# Test: PBM E-score (8-mer binding enrichment) (E-score (-0.5 to 0.5)); higher = stronger / more preferred TF binding; most listed sequences are background and not binding sites
# Settings: protein concentration: 200 nM; construct: GST-DNA-binding domain
# Procedure, shortened: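 Each ungapped eight-base word and its reverse complement, pooled, received an E-score from the Universal PBM Analysis Suite. Underlying scans, normalised with masliner, recorded fluorescent anti-GST bound to GST-tagged yeast transcription factors. These were applied at about 100-200 nM to universal all-10-mer Agilent arrays double-stranded by primer extension.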
# UniProt P0CE41, sequence (P0CE41 whole entry): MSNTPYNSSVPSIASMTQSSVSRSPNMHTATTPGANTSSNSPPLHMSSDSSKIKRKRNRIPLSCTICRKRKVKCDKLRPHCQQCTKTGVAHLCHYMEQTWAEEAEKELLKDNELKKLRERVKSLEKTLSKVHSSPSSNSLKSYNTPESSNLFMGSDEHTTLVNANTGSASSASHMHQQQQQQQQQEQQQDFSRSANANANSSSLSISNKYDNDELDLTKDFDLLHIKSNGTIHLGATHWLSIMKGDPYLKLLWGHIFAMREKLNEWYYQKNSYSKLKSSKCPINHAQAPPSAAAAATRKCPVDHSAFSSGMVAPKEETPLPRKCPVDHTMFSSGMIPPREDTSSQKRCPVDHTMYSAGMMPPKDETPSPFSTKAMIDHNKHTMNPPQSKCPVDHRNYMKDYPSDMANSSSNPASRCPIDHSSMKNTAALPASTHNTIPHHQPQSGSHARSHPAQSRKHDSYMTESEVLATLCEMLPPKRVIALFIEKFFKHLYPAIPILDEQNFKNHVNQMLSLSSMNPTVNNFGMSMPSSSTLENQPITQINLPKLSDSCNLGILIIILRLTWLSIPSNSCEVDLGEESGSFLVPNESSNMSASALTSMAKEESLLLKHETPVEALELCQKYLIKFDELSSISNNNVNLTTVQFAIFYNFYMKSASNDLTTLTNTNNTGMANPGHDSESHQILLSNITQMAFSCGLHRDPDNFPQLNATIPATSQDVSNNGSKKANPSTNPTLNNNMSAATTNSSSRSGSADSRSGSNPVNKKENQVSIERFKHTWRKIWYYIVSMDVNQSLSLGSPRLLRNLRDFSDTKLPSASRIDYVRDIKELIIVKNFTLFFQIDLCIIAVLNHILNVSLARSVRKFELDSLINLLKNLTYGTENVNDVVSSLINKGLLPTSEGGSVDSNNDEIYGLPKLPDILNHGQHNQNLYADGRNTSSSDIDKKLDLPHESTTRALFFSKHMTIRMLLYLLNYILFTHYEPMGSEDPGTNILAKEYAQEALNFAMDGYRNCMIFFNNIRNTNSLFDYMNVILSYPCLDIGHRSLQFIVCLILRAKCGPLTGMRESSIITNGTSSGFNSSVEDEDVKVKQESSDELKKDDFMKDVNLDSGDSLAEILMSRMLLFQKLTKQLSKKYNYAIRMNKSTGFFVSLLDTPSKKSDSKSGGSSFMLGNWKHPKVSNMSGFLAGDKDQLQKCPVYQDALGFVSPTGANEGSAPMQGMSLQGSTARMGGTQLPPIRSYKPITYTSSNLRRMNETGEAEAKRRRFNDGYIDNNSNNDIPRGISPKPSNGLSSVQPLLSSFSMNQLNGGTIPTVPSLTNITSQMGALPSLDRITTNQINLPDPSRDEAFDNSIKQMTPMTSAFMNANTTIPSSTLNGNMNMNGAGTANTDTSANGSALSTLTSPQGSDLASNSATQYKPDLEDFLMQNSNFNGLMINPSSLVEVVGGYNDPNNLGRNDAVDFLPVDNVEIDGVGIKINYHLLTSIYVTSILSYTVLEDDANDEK
row,Sequence,PBM E-score
1,ACCCTCGA,-0.127
2,ACGCATAC,-0.00662
3,ACCGTCGC,0.193
4,ACATGACT,-0.29
5,CGCAGTCA,-0.0499
6,CTATTGCA,-0.11
7,ACCTGTGG,-0.18
8,ACGGCTGC,-0.00727
9,CTCAGGAG,-0.24
10,CAGACTAG,-0.378
11,CCATCGAA,-0.164
12,CACCAGTG,-0.243
13,CGCTGGAC,-0.0346
14,AGTTTCAC,-0.236
15,ATAATCGA,-0.0328
16,CAGTTGGG,-0.266
17,AGAGTGGG,-0.0463
18,ACTTCCGC,0.249
19,CAGTTCCC,0.11
20,AGGGAAGA,-0.335
21,AGCCGTCG,0.0952
22,AAATACTG,-0.0576
23,ACTGCGCG,0.106
24,CACGGAGG,0.214
25,CATACGGG,0.00011

row,Sequence,PBM E-score
1,CAAGTATA,-0.235
2,ATGGCAGC,-0.0667
3,AGGAAAAC,-0.054
4,CTCACTGC,-0.166
5,GACTATTA,-0.129
6,TTTAAAAA,-0.052
7,CATGTAGG,-0.0257
8,ATGGATAA,-0.0672
9,AGGGAATC,-0.147
10,ATAACGAT,-0.0501
11,CGTACCAA,-0.0973
12,CTCTGTGA,-0.288
13,ACCACGAA,-0.157
14,ACGTGATG,-0.267
15,AAACAGCG,-0.0524
16,GTGGACGA,-0.0496
17,AGAGCCGA,0.306
18,AGCTTTCC,0.0924
19,ATCCGAAC,0.355
20,AGGTGAGA,-0.187
21,CTAGTACA,-0.117
22,GGCTATTA,0.117
23,CGCGGTGA,0.0447
24,GAAGCAAC,-0.0357
25,ACCCTTAT,-0.0243

row,Sequence,PBM E-score
1,CCCCCGGA,0.305
2,AATCGCGC,0.135
3,AAAATTCG,0.149
4,CCATACCC,0.108
5,CGGAGACA,0.366
6,CTGTGGGC,-0.225
7,GGCACCGA,0.094
8,CTGGGAGC,-0.0941
9,AGGAGGGC,-0.276
10,CCATTCCA,-0.0844
11,AACGCGTC,0.0721
12,AAAACATC,-0.127
13,CAACAGAG,-0.0978
14,GCGAAATA,0.083
15,AACGCGTT,0.0902
16,GTTCCCCA,-0.0867
17,TAGGAACA,-0.231
18,GATGTGAA,-0.0999
19,GATATACC,0.285
20,AAACTTCC,0.0753
21,GAACTTCC,0.0685
22,AGATATCA,-0.129
23,TGGTATAA,-0.0715
24,CATAACGC,0.0608
25,CATAGCGC,0.0635

row,Sequence,PBM E-score
1,AAACGAAA,-0.046
2,AAGCTCAG,-0.237
3,TAAGCTCA,-0.00629
4,CGTTTGAG,-0.0797
5,CCACACGA,-0.254
6,CAAATTCA,-0.061
7,AATGTCCA,-0.104
8,GTTTGGGA,-0.0806
9,AACAAGCT,-0.0404
10,CCACCCGC,0.217
11,ACACCACT,-0.107
12,GTAATTGA,0.00674
13,GATTTACC,0.313
14,CTAGCTAC,-0.257
15,ATGGCAAT,-0.0398
16,GACCGGGA,0.329
17,ATACCTAG,-0.084
18,AAGAGGAG,-0.103
19,AGTGTGTA,-0.226
20,GAGTTATC,0.278
21,CACCTTTA,-0.116
22,GATTCAAA,-0.158
23,CATCCCAC,-0.052
24,GATAGTGC,-0.0408
25,ACTAATGG,0.0055

row,Sequence,PBM E-score
1,CGGCGCCA,0.246
2,CCTGACAC,-0.16
3,ACGCCCCG,0.193
4,CAGAGCCG,0.108
5,ACCGCATC,0.173
6,CGCGATTC,0.2
7,AGATCACC,0.00153
8,ACACTCGT,-0.275
9,CTCATCTA,-0.061
10,TACCGGGA,0.387
11,AGTACAGA,-0.047
12,AACATTAA,-0.0375
13,CGAATCAG,-0.212
14,AGCTCACC,0.043
15,AGTCCGAG,0.428
16,ACAACCAT,-0.0258
17,AGCACTGG,-0.267
18,CCACTGAG,-0.235
19,GATCCAAA,0.0217
20,TACTACTA,0.0814
21,GCTTCATA,-0.0731
22,AAGCAAAA,-0.142
23,CACACGGG,0.0767
24,CTGTGGGA,-0.306
25,TAGAGAAA,-0.125

row,Sequence,PBM E-score
1,GCGATAGC,0.00865
2,CTAATTTC,0.0933
3,CAAATACA,-0.149
4,CAAACAGG,-0.203
5,CAGCGGGC,0.123
6,AATACAAG,-0.0861
7,CAGCTCCA,-0.231
8,CCGCCCCC,-0.0463
9,CTCGAAAC,-0.113
10,CCTGCTCC,0.14
11,AATCATGA,-0.133
12,TCAAGACA,-0.154
13,AGTTTGGC,-0.0614
14,AATAAAAG,-0.0131
15,CCAAGTCA,-0.111
16,AAAAACTT,-0.0448
17,CAGATTCG,0.138
18,CCAGACCC,-0.0192
19,ACCAGATG,-0.266
20,CCGAGGGA,0.264
21,CGGGCCCC,0.293
22,GGTGACAC,0.0248
23,AGGCGCCA,0.0364
24,GGGACTCA,-0.148
25,TCGCACGA,-0.0928

row,Sequence,PBM E-score
1,ATTTCCTC,0.127
2,CATAGCGG,0.3
3,AACTCGTA,-0.14
4,CGCTCTGC,-0.0103
5,CGAGAAAG,0.156
6,AAGTTTGC,-0.0358
7,CGAGCAGA,0.0783
8,GCCGCGGC,0.361
9,AACGCACA,-0.00776
10,ATCATGGA,-0.318
11,GGGTTAAA,0.226
12,GGTCCGAC,0.392
13,AATGGAGC,-0.174
14,CAGTTTCG,0.039
15,CTTCTGTA,-0.236
16,GCGACCGA,0.253
17,AACTTCCC,-0.1
18,CTACGAGA,-0.0738
19,ATGCTTGG,-0.181
20,CATGCGCG,0.119
21,ATCGATCC,0.0901
22,AAGAAGTC,-0.129
